# Reference: the supplement of paper PMC8728848
# Some of the results follow.
# B1: Epa10 (protein)
# chain: MNEKIFRYLTLLFLFELARSLPVEDKLNIKKVFEKRAVDFTPFAHYPRPEGCSSPPNSVSVGLHMNLYNYPYLYVKPSTKGMFTNDTNSDADGETDGDSAGGIEGRAGQCWNPEYQDPNFPRFGYKQYGEFGASDNVNGDISWDHNEFTEGCKPVLAALPPGYNYPDEITFSNFTMVLSGYFKPKTSGVYKFELKADDFILFNFGAKNAFECCNREESIDNFGPYVAYAMWPNQADQELEVYLFEDSYYPLRLFYNNRDYHSKFKIGFYPPGQTTITFDFDGYLFMLDDTGNECRDSIRYRTVCDDKVVDDTTYSTRYSTSMVPGGGSDVITIYYIRMKCEEEDCLGQWDPINNVCYSPDDCADDGGYWNGQMCDQSCKLEGGIVNPDTGDCDKSCIESGGFLDENGNCDTTCRDDGGMLVEGQCDYQCKEAGGILVGDHCDTTCVDSGGKLNEDGTCDHSCRDQGGQLDENGECDTSCKDSGGMLIEGECDTSCKDEGGQLDDNNECINHCKDQGGIIDENGNCDTSCKDSGGKLDESGACDTSCRDDGGIIDENGNCNTTCRDDGGIIVGDHCDTSCRDAGGILIEDHCDTTCRDSGGKLNEDGTCDHSCRDQGGQLDENGKCDYSCKNGGGKLDEDGNCDMSCKENGGKLDENGDCDLSCKEDGGKLDGNGDCDYSCKEEGGVIDESGNCNTTCKDSGGQIIDGECNYGCIEVGGVVIDGECDTSCIDSGGILDGDGNCDRSCIESGGVLEDGACNTTCRDSGGQLNVDGTCDTSCRDDGGMLVEGQCDYQCKEAGGILEDGECVFPPTSSSTSETSSTTDQSSLQSDDSSMESSSTPMDSSTIESSSSEIITSESESESVPIASSSSEVMTSESESESIPILTSSSEIPIASSSSEIPVASSSSEIIIPESESESVPVASSSSEIPIASSSSEIPVASSSSEIPVASSSSEIIIPESESESIPIESTSSEAVSSRSESDSSYPTPTPTTTTITTWPNPIQPTTSNSSPIVSSSTETPGIAESSSRISDLESSRRTSILGDDRTRTRTTITSTITEDGQIITITTTVTGFVPEPTGETEGNGSDDENPENPIENNTDENEFLDPEFTDDIPDDPAGPEDNGNGPVNPEQGNDNDPVNLEDSGNNGAVNPEQAPVNDEDNGGNDPVNPEQDNNNGPANPGQDSTNGSGNSDQIDNNPPTPEENAGDGNSNGNDPADPSRRTSILGDERTRASPGGTSQPTGANGNVNGNSPGANVNGGGTGNSNNNNNNNNNNNNGNAPNGGDGSNGDANQGPSRRTSLLGDERTRAGQAAPTGGSSPDNGIAGDTSNNGGAIVSQQVDDGGAGSPRRTSILGDVRSRTTLNGEVLNFEGSGVRRAVAGNLALPLMMVGLVFNL
# What was measured:
# Experiment in all cases: glycan array binding signal (z-score within array); higher = stronger binding
# Conditions in all cases: glycan notation: IUPAC condensed, linker removed
# Gal(b1-4)Glc = target: Gal(b1-4)Glc
# In short: (§1)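 From the Consortium for Functional Glycomics database, 3228 arrays were curated, keeping only those whose protein sequence was available. Binding is given as a within-array Z-score averaged across arrays sharing a protein sequence and across linkers. Negative Z-scores can be read as non-binding.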
# Gal(b1-4)Glc6S = target: Gal(b1-4)Glc6S
# In short: as §1
# Gal(b1-4)GlcNAc = target: Gal(b1-4)GlcNAc
# In short: as §1
# [1] = target: Gal(b1-4)GlcNAc(a1-6)Gal(b1-4)GlcNAc
# In short: as §1
# Gal(b1-4)GlcNAc(b1-2)Man = target: Gal(b1-4)GlcNAc(b1-2)Man
# In short: as §1
# [2] = target: Gal(b1-4)GlcNAc(b1-2)Man(a1-3)Man(b1-4)GlcNAc(b1-4)GlcNAc
# In short: as §1
# [3] = target: Gal(b1-4)GlcNAc(b1-2)Man(a1-3)[Gal(b1-4)GlcNAc(b1-2)Man(a1-6)]Man(b1-4)GlcNAc(b1-4)GlcNAc
# In short: as §1
# [4] = target: Gal(b1-4)GlcNAc(b1-2)Man(a1-3)[Gal(b1-4)GlcNAc(b1-2)Man(a1-6)]Man(b1-4)GlcNAc(b1-4)[Fuc(a1-6)]GlcNAc
# In short: as §1
# [5] = target: Gal(b1-4)GlcNAc(b1-2)Man(a1-3)[Gal(b1-4)GlcNAc(b1-2)Man(a1-6)][Gal(b1-4)GlcNAc(b1-4)]Man(b1-4)GlcNAc(b1-4)[Fuc(a1-6)]GlcNAc
# In short: as §1
# [6] = target: Gal(b1-4)GlcNAc(b1-2)Man(a1-3)[Gal(b1-4)GlcNAc(b1-2)Man(a1-6)][GlcNAc(b1-4)]Man(b1-4)GlcNAc(b1-4)[Fuc(a1-6)]GlcNAc
# In short: as §1
# [7] = target: Gal(b1-4)GlcNAc(b1-2)Man(a1-3)[GlcNAc(b1-2)Man(a1-6)]Man(b1-4)GlcNAc(b1-4)GlcNAc
# In short: as §1
# [8] = target: Gal(b1-4)GlcNAc(b1-2)Man(a1-3)[GlcNAc(b1-4)][Gal(b1-4)GlcNAc(b1-2)Man(a1-6)]Man(b1-4)GlcNAc(b1-4)GlcNAc
# In short: as §1
# [9] = target: Gal(b1-4)GlcNAc(b1-2)Man(a1-3)[Man(a1-6)]Man(b1-4)GlcNAc(b1-4)GlcNAc
# In short: as §1
# [10] = target: Gal(b1-4)GlcNAc(b1-2)Man(a1-6)Man(b1-4)GlcNAc(b1-4)GlcNAc
# In short: as §1
# [11] = target: Gal(b1-4)GlcNAc(b1-2)Man(a1-6)[GlcNAc(b1-2)Man(a1-3)]Man(b1-4)GlcNAc(b1-4)GlcNAc
# In short: as §1
# [12] = target: Gal(b1-4)GlcNAc(b1-2)Man(a1-6)[Man(a1-3)]Man(b1-4)GlcNAc(b1-4)GlcNAc
# In short: as §1
# [13] = target: Gal(b1-4)GlcNAc(b1-2)[Gal(b1-4)GlcNAc(b1-4)]Man(a1-3)[Gal(b1-4)GlcNAc(b1-2)Man(a1-6)]Man(b1-4)GlcNAc(b1-4)GlcNAc
# In short: as §1
# [14] = target: Gal(b1-4)GlcNAc(b1-2)[Gal(b1-4)GlcNAc(b1-4)]Man(a1-3)[Gal(b1-4)GlcNAc(b1-2)[Gal(b1-4)GlcNAc(b1-6)]Man(a1-6)]Man(b1-4)GlcNAc(b1-4)GlcNAc
# In short: as §1
# [15] = target: Gal(b1-4)GlcNAc(b1-2)[Gal(b1-4)GlcNAc(b1-4)]Man(a1-3)[GlcNAc(b1-4)][Gal(b1-4)GlcNAc(b1-2)Man(a1-6)]Man(b1-4)GlcNAc(b1-4)GlcNAc
# In short: as §1
# [16] = target: Gal(b1-4)GlcNAc(b1-2)[Gal(b1-4)GlcNAc(b1-4)]Man(a1-3)[GlcNAc(b1-4)][Gal(b1-4)GlcNAc(b1-2)[Gal(b1-4)GlcNAc(b1-6)]Man(a1-6)]Man(b1-4)GlcNAc(b1-4)GlcNAc
# In short: as §1
# [17] = target: Gal(b1-4)GlcNAc(b1-2)[Gal(b1-4)GlcNAc(b1-6)]Man(a1-6)[Gal(b1-4)GlcNAc(b1-2)Man(a1-3)]Man(b1-4)GlcNAc(b1-4)GlcNAc
# In short: as §1
# [18] = target: Gal(b1-4)GlcNAc(b1-2)[Gal(b1-4)GlcNAc(b1-6)]Man(a1-6)[Gal(b1-4)GlcNAc(b1-2)Man(a1-3)]Man(b1-4)GlcNAc(b1-4)[Fuc(a1-6)]GlcNAc
# In short: as §1
binder,measurement,setting,value
B1,glycan array binding signal (z-score),Gal(b1-4)Glc,-0.264
same,glycan array binding signal (z-score),Gal(b1-4)Glc6S,-0.202
same,glycan array binding signal (z-score),Gal(b1-4)GlcNAc,-0.197
same,glycan array binding signal (z-score),[1],1.05
same,glycan array binding signal (z-score),Gal(b1-4)GlcNAc(b1-2)Man,-0.172
same,glycan array binding signal (z-score),[2],-0.107
same,glycan array binding signal (z-score),[3],-0.114
same,glycan array binding signal (z-score),[4],-0.261
same,glycan array binding signal (z-score),[5],-0.267
same,glycan array binding signal (z-score),[6],-0.193
same,glycan array binding signal (z-score),[7],-0.176
same,glycan array binding signal (z-score),[8],-0.275
same,glycan array binding signal (z-score),[9],-0.199
same,glycan array binding signal (z-score),[10],-0.193
same,glycan array binding signal (z-score),[11],-0.21
same,glycan array binding signal (z-score),[12],-0.272
same,glycan array binding signal (z-score),[13],0.119
same,glycan array binding signal (z-score),[14],0.12
same,glycan array binding signal (z-score),[15],-0.21
same,glycan array binding signal (z-score),[16],0.053
same,glycan array binding signal (z-score),[17],-0.054
same,glycan array binding signal (z-score),[18],0.132
